# Experimental data published in US20240277658A1, “NLRP3 ACTIVATORS FOR USE IN THE TREATMENT OF INFECTIOUS DISEASES OR CANCER BY ACTIVATING NLRP3 INFLAMMASOME” (ALBERT-LUDWIGS-UNIVERSITÄT FREIBURG, priority 2020, published 2024).
# “And” between values parts separate entries of the source, which are not always exact repeats. Equal entries are not always repeated. The name of at least one read-out is uncertain.
# Tested on: BMDCs
# Test: LDH release (lytic cell death, pyroptosis) from LPS-primed BMDCs
# Assay type: cell-based, mouse
# Outline: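 LDH released into medium, detected colorimetrically, served as the pyroptosis read-out in triplicate. LPS-primed (50 ng ml^−1, 3 h) murine bone marrow-derived dendritic cells received test compounds, typically 50 μM, or nigericin (5 μM), R837 or CL097 (100 μM) for 3 hours.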
# [1] = single replicates, compound 50 μM, LPS-primed BMDCs
SMILES,LDH release (% of max.) [1],also measured
"COc1cccc(NC(=O)NCc2nc(Cc3ccccc3)no2)c1 [L01.067, 3-[(3-benzyl-1,2,4-oxadiazol-5-yl)methyl]-1-(3-methoxyphenyl)-urea]",6.962 % of max. and 7.048 % of max.,–
"O=[N+]([O-])c1ccc(NC(=S)Nc2cccc(Cl)c2)c(Cl)c1 [AH2, 1-(2-chloro-4-nitrophenyl)-3-(3-chlorophenyl) thiourea]",–,"LDH release (% of max.) (25 μM, individual replicate values, AH series table): 22.415 % of max. and 22.110 % of max.; LDH release (% of max.) (50 μM, individual replicate values, AH series table): 21.681 % of max. and 21.969 % of max.; LDH release (% of max.) (75 μM, individual replicate values): 25.530 % of max. and 26.645 % of max."
"COc1ccc(F)cc1NC(=O)NC(c1nc(-c2cccnc2)no1)C(C)C (stereo not shown) [L01.007, 1-(5-fluoro-2-methoxy-phenyl)-3-{2-methyl-1-[3-(pyridin-3-yl)-1,2,4-oxadiazol-5-yl]propyl}-urea]",23.721 % of max. and 19.371 % of max.,–
"CC(=O)Nc1ccc(NC(=O)Nc2ccccc2)cc1 [L01.109, N-{4-[(phenylcarbamo-yl)amino]phenyl}acet-amide]",7.795 % of max. and 7.697 % of max.,–
"O=C1CN(c2ccccc2)C(=O)N1Cc1nc(-c2ccco2)no1 [L01.033, 3-{[3-(furan-2-yl)-1,2,4-oxadiazol-5-yl]methyl}-1-phenylimidazolidine-2,4-dione]",9.134 % of max. and 7.247 % of max.,–
"CC(C)CC(NC(=O)Nc1cccc(N2CCC(C)CC2)c1)c1nc(-c2nnc[nH]2)no1 (stereo not shown) [L01.093, 3-{3-methyl-1-[3-(4H-1,2,4-triazol-3-yl)-1,2,4-oxadiazol-5-yl]butyl}-1-[3-(4-methylpiperidin-1-yl)phenyl]urea]",7.891 % of max. and 9.879 % of max.,–
"Cc1cccc(-c2noc(CN3C(=O)CN(c4ccccc4)C3=O)n2)c1 [L01.069, 3-{[3-(3-methylphenyl)-1,2,4-oxadiazol-5-yl]-methyl}-1-phenylimid-azolidine-2,4-dione]",8.968 % of max. and 9.736 % of max.,–
"CC(C)C(NC(=O)Nc1cccc(C(F)(F)F)c1)c1nc(-c2cccnc2)no1 (stereo not shown) [L01.005, 3-{2-methyl-1-[3-(pyridin-3-yl)-1,2,4-oxadiazol-5-yl]propyl}-1-[3-(trifluoromethyl)-phenyl]urea]",16.790 % of max. and 18.315 % of max.,–
